# Reference: the supplement of paper PMC8728848
# Some of the results follow.
# What was measured:
# Assay in all cases: glycan array binding signal (z-score within array); higher = stronger binding
# Settings in all cases: glycan notation: IUPAC condensed, linker removed; mutation: R120K
# [1] = target: Gal(b1-4)GlcNAc(b1-2)[Gal(b1-4)GlcNAc(b1-4)]Man(a1-3)[Gal(b1-4)GlcNAc(b1-2)[Gal(b1-4)GlcNAc(b1-6)]Man(a1-6)]Man(b1-4)GlcNAc(b1-4)GlcNAc
# Procedure, shortened: (§1)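 The binding signal is a Z-score computed within each array. Data were drawn from 3228 arrays in the Consortium for Functional Glycomics database, restricted to those with a known protein sequence. Scores were averaged over arrays of the same protein sequence at different concentrations or buffers, and over linkers, and negative values can be taken as non-binding.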
# [2] = target: Gal(b1-4)GlcNAc(b1-2)[Gal(b1-4)GlcNAc(b1-4)]Man(a1-3)[GlcNAc(b1-4)][Gal(b1-4)GlcNAc(b1-2)Man(a1-6)]Man(b1-4)GlcNAc(b1-4)GlcNAc
# Procedure, shortened: as §1
# [3] = target: Gal(b1-4)GlcNAc(b1-2)[Gal(b1-4)GlcNAc(b1-4)]Man(a1-3)[GlcNAc(b1-4)][Gal(b1-4)GlcNAc(b1-2)[Gal(b1-4)GlcNAc(b1-6)]Man(a1-6)]Man(b1-4)GlcNAc(b1-4)GlcNAc
# Procedure, shortened: as §1
# [4] = target: Gal(b1-4)GlcNAc(b1-2)[Gal(b1-4)GlcNAc(b1-6)]Man(a1-6)[Gal(b1-4)GlcNAc(b1-2)Man(a1-3)]Man(b1-4)GlcNAc(b1-4)GlcNAc
# Procedure, shortened: as §1
# [5] = target: Gal(b1-4)GlcNAc(b1-2)[Gal(b1-4)GlcNAc(b1-6)]Man(a1-6)[Gal(b1-4)GlcNAc(b1-2)Man(a1-3)]Man(b1-4)GlcNAc(b1-4)[Fuc(a1-6)]GlcNAc
# Procedure, shortened: as §1
# [6] = target: Gal(b1-4)GlcNAc(b1-2)[Gal(b1-4)GlcNAc(b1-6)]Man(a1-6)[GlcNAc(b1-4)][Gal(b1-4)GlcNAc(b1-2)Man(a1-3)]Man(b1-4)GlcNAc(b1-4)GlcNAc
# Procedure, shortened: as §1
# [7] = target: Gal(b1-4)GlcNAc(b1-2)[Gal(b1-4)GlcNAc(b1-6)]Man(a1-6)[GlcNAc(b1-4)][Gal(b1-4)GlcNAc(b1-2)[Gal(b1-4)GlcNAc(b1-4)]Man(a1-3)]Man(b1-4)GlcNAc(b1-4)[Fuc(a1-6)]GlcNAc
# Procedure, shortened: as §1
# [8] = target: Gal(b1-4)GlcNAc(b1-3)Gal(b1-3)GalNAc
# Procedure, shortened: as §1
# [9] = target: Gal(b1-4)GlcNAc(b1-3)Gal(b1-3)GlcNAc
# Procedure, shortened: as §1
# [10] = target: Gal(b1-4)GlcNAc(b1-3)Gal(b1-4)Glc
# Procedure, shortened: as §1
# [11] = target: Gal(b1-4)GlcNAc(b1-3)Gal(b1-4)GlcNAc
# Procedure, shortened: as §1
# [12] = target: Gal(b1-4)GlcNAc(b1-3)Gal(b1-4)GlcNAc(b1-2)Man(a1-3)[Gal(b1-4)GlcNAc(b1-3)Gal(b1-4)GlcNAc(b1-2)Man(a1-6)]Man(b1-4)GlcNAc(b1-4)GlcNAc
# Procedure, shortened: as §1
# [13] = target: Gal(b1-4)GlcNAc(b1-3)Gal(b1-4)GlcNAc(b1-2)Man(a1-3)[Gal(b1-4)GlcNAc(b1-3)Gal(b1-4)GlcNAc(b1-2)Man(a1-6)]Man(b1-4)GlcNAc(b1-4)[Fuc(a1-6)]GlcNAc
# Procedure, shortened: as §1
# [14] = target: Gal(b1-4)GlcNAc(b1-3)Gal(b1-4)GlcNAc(b1-2)[Gal(b1-4)GlcNAc(b1-3)Gal(b1-4)GlcNAc(b1-6)]Man(a1-6)[Gal(b1-4)GlcNAc(b1-3)Gal(b1-4)GlcNAc(b1-2)Man(a1-3)]Man(b1-4)GlcNAc(b1-4)GlcNAc
# Procedure, shortened: as §1
# [15] = target: Gal(b1-4)GlcNAc(b1-3)Gal(b1-4)GlcNAc(b1-2)[Gal(b1-4)GlcNAc(b1-3)Gal(b1-4)GlcNAc(b1-6)]Man(a1-6)[Gal(b1-4)GlcNAc(b1-3)Gal(b1-4)GlcNAc(b1-2)Man(a1-3)]Man(b1-4)GlcNAc(b1-4)[Fuc(a1-6)]GlcNAc
# Procedure, shortened: as §1
# [16] = target: Gal(b1-4)GlcNAc(b1-3)Gal(b1-4)GlcNAc(b1-3)Gal(b1-4)GlcNAc
# Procedure, shortened: as §1
# [17] = target: Gal(b1-4)GlcNAc(b1-3)Gal(b1-4)GlcNAc(b1-3)Gal(b1-4)GlcNAc(b1-2)Man(a1-3)[Gal(b1-4)GlcNAc(b1-3)Gal(b1-4)GlcNAc(b1-3)Gal(b1-4)GlcNAc(b1-2)Man(a1-6)]Man(b1-4)GlcNAc(b1-4)GlcNAc
# Procedure, shortened: as §1
# [18] = target: Gal(b1-4)GlcNAc(b1-3)Gal(b1-4)GlcNAc(b1-3)Gal(b1-4)GlcNAc(b1-2)Man(a1-3)[Gal(b1-4)GlcNAc(b1-3)Gal(b1-4)GlcNAc(b1-3)Gal(b1-4)GlcNAc(b1-2)Man(a1-6)]Man(b1-4)GlcNAc(b1-4)[Fuc(a1-6)]GlcNAc
# Procedure, shortened: as §1
# [19] = target: Gal(b1-4)GlcNAc(b1-3)Gal(b1-4)GlcNAc(b1-3)Gal(b1-4)GlcNAc(b1-2)[Gal(b1-4)GlcNAc(b1-3)Gal(b1-4)GlcNAc(b1-3)Gal(b1-4)GlcNAc(b1-6)]Man(a1-6)[Gal(b1-4)GlcNAc(b1-3)Gal(b1-4)GlcNAc(b1-3)Gal(b1-4)GlcNAc(b1-2)Man(a1-3)]Man(b1-4)GlcNAc(b1-4)[Fuc(a1-6)]GlcNAc
# Procedure, shortened: as §1
binder,measurement,setting,value
"Siglec-9 (Homo sapiens), Q9Y336 (protein) MLLLLLPLLWGRERAEGQTSKLLTMQSSVTVQEGLCVHVPCSFSYPSHGWIYPGPVVHGYWFREGANTDQDAPVATNNPARAVWEETRDRFHLLGDPHTKNCTLSIRDARRSDAGRYFFKMEKGSIKWNYKHHRLSVNVTALTHRPNILIPGTLESGCPQNLTCSVPWACEQGTPPMISWIGTSVSPLDPSTTRSSVLTLIPQPQDHGTSLTCQVTFPGASVTTNKTVHLNVSYPPQNLTMTVFQGDGTVSTVLGNGSSLSLPEGQSLRLVCAVDAVDSNPPARLSLSWRGLTLCPSQPSNPGVLELPWVHLRDAAEFTCRAQNPLGSQQVYLNVSLQSKATSGVTQGVVGGAGATALVFLSFCVIFVVVRSCRKKSARPAAGVGDTGIEDANAVRGSASQGPLTEPWAEDSPPDQPPPASARSSVGEGELQYASLSFQMVKPWDSRGQEATDTEYSEIKIHR",glycan array binding signal (z-score),[1],0.179
same,glycan array binding signal (z-score),[2],-0.275
same,glycan array binding signal (z-score),[3],0.036
same,glycan array binding signal (z-score),[4],-0.258
same,glycan array binding signal (z-score),[5],0.261
same,glycan array binding signal (z-score),[6],-0.302
same,glycan array binding signal (z-score),[7],-0.267
same,glycan array binding signal (z-score),[8],0.236
same,glycan array binding signal (z-score),[9],-0.375
same,glycan array binding signal (z-score),[10],0.054
same,glycan array binding signal (z-score),[11],-0.464
same,glycan array binding signal (z-score),[12],0.246
same,glycan array binding signal (z-score),[13],-0.136
same,glycan array binding signal (z-score),[14],0.297
same,glycan array binding signal (z-score),[15],-0.068
same,glycan array binding signal (z-score),[16],-0.454
same,glycan array binding signal (z-score),[17],0.276
same,glycan array binding signal (z-score),[18],-0.04
same,glycan array binding signal (z-score),[19],-0.272
